The values that follow come from PubChem BioAssay AID1745853 (National Center for Advancing Translational Sciences (NCATS), 2022).

Assay in all cases: Primary Screen for Target Class Profiling of Small Molecule Inhibitors of Methyltransferases
Test [1] concerns the target Glycine N-methyltransferase (Homo sapiens) (UniProt Q14749). To be noted: purified enzyme, MTase-Glo SAH luminescence; measured here: GNMT inhibition; at 40 µM; stronger effect = lower value. Summed up: (§1)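 Each enzyme was assayed with SAM and its substrate. SAH formation detected by MTase-Glo luminescence; single-point 40 uM screen[…].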
Test [2] deals with Guanidinoacetate N-methyltransferase (Homo sapiens) (UniProt Q14353). The note with it: purified enzyme, MTase-Glo SAH luminescence; measured here: GAMT inhibition; at 40 µM; stronger effect = lower value. A digest of the protocol: as §1
Test [3] deals with Histamine N-methyltransferase (Homo sapiens) (UniProt P50135). The note with it: purified enzyme, MTase-Glo SAH luminescence; measured here: HNMT inhibition; at 40 µM; stronger effect = lower value. Summed up:
as §1

The target of test [4] is Nicotinamide N-methyltransferase (Homo sapiens) (UniProt P40261). The note with it: purified enzyme, MTase-Glo SAH luminescence; measured here: NNMT inhibition; at 40 µM; stronger effect = lower value. A digest of the protocol:
as §1

Test [5] concerns the target Phenylethanolamine N-methyltransferase (Homo sapiens) (UniProt P11086). To be noted: purified enzyme, MTase-Glo SAH luminescence; measured here: PNMT inhibition; at 40 µM; stronger effect = lower value. Summed up: as §1

The list shows a part of the results. The main result of the screen is listed elsewhere. These columns were measured beside it and carry no call.
% is set by controls: 0 for no effect and ±100 for the full control effect.

On to `CC1(C(=O)NC2CCCCC2)Cn2c(cc3ccccc32)C(=O)N1Cc1ccccc1Cl` (stereo not given), for which the activity change, negative = inhibition in test [1] is -5.81%; in test [2], -0.715%; in test [3], -1.59%; in test [4] it was -4.22%; in test [5], -2.55%.
`CCCn1c(=O)c2ccc(C(=O)NC3CCCC3)cc2n2c(SCC(=O)c3ccc(F)cc3)nnc12`: the activity change, negative = inhibition in test [1] is 7.77%; in test [2] it was 0%; in test [3] it was 7.13%; in test [4] it was -3.43%; in test [5] it was 3.55%.
Consider `Cc1ccc2c(c1)C1C=CCC1C(c1ccccc1Cl)N2` (stereo not given), for which the activity change, negative = inhibition in test [1] is -6.88%; in test [2], -1.77%; in test [3], -7.63%; in test [4], -1.67%; in test [5], -9.32%.
For the compound `COC1CCN(C(=O)Nc2ccccc2)CC(=O)N(C)c2ccccc21` (stereo not given), the activity change, negative = inhibition in test [1] is -6.72%; in test [2], -6.83%; in test [3] it was -4.04%; in test [4] it was -8.29%; in test [5] it was -37.1%.
`CC(C)OCCCNC(=O)CNC(=O)C1(C)Cn2c(cc3ccccc32)C(=O)N1C` (stereo not given): the activity change, negative = inhibition in test [1] is -8.96%; in test [2], 4.21%; in test [3] it was -8.63%; in test [4] it was -7.29%; in test [5], -1.43%.
As for `O=[S+]1([O-])[C@@H](c2ccccc2)[C@H](COCc2ccccc2)CN1C1CC1`, the activity change, negative = inhibition in test [1] was -6.12%; in test [2], -4.97%; in test [3], -1.86%; in test [4], -8.48%; in test [5] it was 10.2%.
On to `CCOc1ccccc1CN1C(=O)CSc2c(c3ccccc3n2C)C1C(=O)NCCC(C)C` (stereo not given), for which the activity change, negative = inhibition in test [1] was 12.5%; in test [2], 0%; in test [3] it was 1.49%; in test [4], -0.748%; in test [5], 5.64%.
For `CC(C)N1CCN(C(=O)c2csc(N3CCN(c4cccc(Cl)c4)CC3)n2)CC1`, in that order: -9.1%, -11.2%, -13.7%, -18% and -9.77%.
For `CCCc1cc2c(-c3ccccc3)cc(=O)oc2cc1OCc1ccc(C(=O)O)o1`, in that order: -57.5%, 1.57%, -6.71%, -23% and -32.1%.
Regarding `Cn1c(Cn2ccnc2)nnc1C1CC(NC(=O)c2ccc(CO)o2)C1` (stereo not given), the activity change, negative = inhibition in test [1] was -3.83%; in test [2], -5.73%; in test [3] it was -2.58%; in test [4] it was -12.4%; in test [5], -5.93%.
`Cc1noc(C)c1CC(=O)N1CC(=O)N(C2CCCCC2)CC(OCc2ccccc2)C1` (stereo not given): the activity change, negative = inhibition is -5.72% in test [1]; -9.64% in test [2]; -2.83% in test [3]; -11.7% in test [4]; -7.2% in test [5].
For the compound `CCC(C)NC(=O)c1ccc2c(=O)n(C)c3nn(CC(=O)Nc4cc(F)ccc4F)c(=O)n3c2c1` (stereo not given), the activity change, negative = inhibition in test [1] was 5.07%; in test [2], 0%; in test [3], 5.66%; in test [4], -2.87%; in test [5] it was 2.76%.
Taken in the same sequence, the figures for `CC(C)OCCCn1c(=O)c2ccccc2n2c(=O)n(Cc3ccccc3)nc12` were -4.69%, 3.83%, -3.21%, -2.05% and -0.509%.
With `COc1ccc(N2C(=O)c3ccc(-c4ccco4)n3CC2(C)C(=O)NCc2ccc(Cl)cc2)cc1` (stereo not given), the activity change, negative = inhibition in test [1] was -17.2%; in test [2] it was 1.87%; in test [3], 0.614%; in test [4] it was -5.23%; in test [5], -2.24%.
Take `COCc1ccc(C(=O)N2CCN(CCO)CC(O)C2)cc1` (stereo not given): the activity change, negative = inhibition in test [1] was -4.16%; in test [2] it was -0.411%; in test [3], 0.98%; in test [4], -2.77%; in test [5] it was 14.6%.
With `CC(C)CCNC(=O)C1(C)Cn2c(cc3ccccc32)C(=O)N1CCc1ccc(Cl)cc1` (stereo not given), the activity change, negative = inhibition worked out at 7.93% in test [1]; 1.41% in test [2]; 10.8% in test [3]; 0.042% in test [4]; 3.68% in test [5].
As to `COc1ccccc1CNC(=O)C1c2c(n(C)c3ccccc23)SCC(=O)N1c1ccc2c(c1)OCO2` (stereo not given), the activity change, negative = inhibition in test [1] is 6.28%; in test [2] it was 1.09%; in test [3], -0.156%; in test [4], -2.32%; in test [5], 3.33%.
For the compound `Cc1cc(C)n(-c2nc3cc(Cl)ccc3nc2Nc2ccc3c(c2)n(C)c(=O)n3C)n1`, the activity change, negative = inhibition is -7.31% in test [1]; 2.16% in test [2]; -1.53% in test [3]; 6.46% in test [4]; -4.07% in test [5].
For `Cc1cc(N=Nc2ccc(S(=O)(=O)Nc3ccccn3)cc2)c(N)cc1O`, in that order: -24.5%, -9.52%, -15%, -31% and -20.4%.
`CC(=O)O[C@H]1[C@@H](O)[C@H](O[C@H]2[C@@H]3C=CO[C@@H](O[C@H]4O[C@@H](CO)[C@H](O)[C@@H](O)[C@@H]4O)[C@@H]3[C@@]3(CO)O[C@@H]23)O[C@@H](C)[C@@H]1OC(=O)/C=C/c1ccccc1`: the activity change, negative = inhibition was -1.48% in test [1]; 2.71% in test [2]; -25.2% in test [3]; -7.51% in test [4]; 1.52% in test [5].
For `CC(CN1C(=O)c2nc3ccccc3n2CC1(C)C(=O)NC1CCCCC1)c1ccccc1` (stereo not given), in that order: -4.1%, 3.53%, -4.76%, -3.61% and -5.75%.
Consider `CCCn1c(=O)c2ccc(C(=O)NC(C)C)cc2n2c(=O)n(Cc3ccc(F)cc3)nc12`, for which the activity change, negative = inhibition in test [1] worked out at 5.48%; in test [2] it was 3.13%; in test [3] it was 11.4%; in test [4], 1.35%; in test [5], 9.69%.
Consider `COC1CC(=O)CCC(C)OC(=O)CC1O` (stereo not given), for which the activity change, negative = inhibition is 0% in test [1]; 5.89% in test [2]; 5.08% in test [3]; -5.33% in test [4]; 4.95% in test [5].
Taken in the same sequence, the figures for `CC1(C(=O)NC2CCCCCC2)Cn2c(ccc2-c2ccco2)C(=O)N1C1CCCCCC1` (stereo not given) were -14.8%, 3.32%, -8.48%, -26.5% and -4.48%.
For `CCOc1ccc2ccccc2c1C(C(=O)O)N1CCN(CC2CC2)CC1` (stereo not given), the activity change, negative = inhibition was -8.79% in test [1]; -9.41% in test [2]; -3.45% in test [3]; -15.2% in test [4]; -8.69% in test [5].
Regarding `N#CC(c1ccnc(OCc2ccc(CN3CCOCC3)cc2)n1)c1nc2ccccc2s1` (stereo not given), the activity change, negative = inhibition was -8.99% in test [1]; -5.47% in test [2]; -1.79% in test [3]; -19.6% in test [4]; -3.1% in test [5].
For `COc1ccc(-c2n[nH]n3c2nc(=O)c2ccc(C(=O)NCc4ccc(Cl)cc4)cc23)cc1`, in that order: -1.21%, 0.681%, 3.97%, 5.52% and 0.015%.
For the compound `CC(=O)O[C@@H]1[C@@H](OC(=O)/C=C/c2ccccc2)[C@H](C)O[C@@H](O[C@H]2[C@@H]3C=CO[C@@H](O[C@@H]4O[C@H](CO)[C@@H](O)[C@H](O)[C@H]4O)[C@@H]3[C@@]3(CO)O[C@@H]23)[C@@H]1OC(C)=O`, the activity change, negative = inhibition in test [1] is 0%; in test [2], 8.7%; in test [3], 8.04%; in test [4], -4.86%; in test [5], 9.04%.
`CC1CCC(NC(=O)C2(C)Cn3c(nc4ccccc43)C(=O)N2CCN2CCOCC2)CC1` (stereo not given): the activity change, negative = inhibition was 0.761% in test [1]; 2.73% in test [2]; 5.89% in test [3]; 5.07% in test [4]; -0.453% in test [5].
For the compound `CCOc1ccccc1CN1C(=O)c2cc3occc3n2CC1(C)C(=O)NC1CCCCCC1` (stereo not given), the activity change, negative = inhibition is 3.08% in test [1]; 0% in test [2]; 5.17% in test [3]; -3.7% in test [4]; -3.56% in test [5].
As for `COC(=O)c1cc2n(n1)CC(C)(C(=O)NC1CCC(C)CC1)N(c1ccc(C)cc1C)C2=O` (stereo not given), the activity change, negative = inhibition in test [1] is 3.11%; in test [2] it was 4.19%; in test [3] it was 6.45%; in test [4], 3.11%; in test [5], 1.07%.
Regarding `CN1CCN(C(=O)CC[C@@H]2CNC(=O)[C@@H]3C[C@H](NC(=O)c4cccc(F)c4)CN23)CC1`, the activity change, negative = inhibition in test [1] was -1.67%; in test [2] it was -2.93%; in test [3], -1%; in test [4], -2.1%; in test [5] it was -1.31%.
Taken in the same sequence, the figures for `CC(C)Oc1ccc(CN2C(=O)c3cc4ccccc4n3CC2(C)C(=O)NCc2ccccc2)cc1` (stereo not given) were 2.62%, 0%, 1.32%, 0.825% and -3.04%.
For `Cc1csc(NC(=O)c2nc3c(o2)CCN(Cc2ccccc2F)CC3)n1`, the activity change, negative = inhibition in test [1] is -8.68%; in test [2] it was -4.79%; in test [3], -0.966%; in test [4] it was -2.9%; in test [5], -5.53%.
Take `CCN(CC)CCCNC(=O)CCc1nnc2n(Cc3ccc(F)cc3)c(=O)c3ccccc3n12`: the activity change, negative = inhibition was -9.03% in test [1]; -4.3% in test [2]; -55% in test [3]; 0.37% in test [4]; -6.49% in test [5].
Regarding `CCCn1c(=O)c2ccc(C(=O)NCC(C)C)cc2n2c(=O)n(CC(=O)Nc3ccccc3)nc12`, the activity change, negative = inhibition amounted to 2.56% in test [1]; 0% in test [2]; 2.44% in test [3]; 3.56% in test [4]; 2.26% in test [5].
